The text below walks through data of article PMC6901573 (Scientific Reports, 2019).

The target of this experiment is Human hemoglobin A, oxidized form (methemoglobin, MetHb) (human, UniProt P69905 1-142; P68871 1-147). Description: stoichiometric titration by UV-Vis absorbance. The following applies: both partners purified.
Sequence of UniProt P69905 (P69905 whole entry, chain 1 of 2): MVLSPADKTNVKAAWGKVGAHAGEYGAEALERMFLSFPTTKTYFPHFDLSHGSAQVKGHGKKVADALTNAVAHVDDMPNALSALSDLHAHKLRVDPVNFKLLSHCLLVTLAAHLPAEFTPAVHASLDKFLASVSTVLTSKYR
Sequence of UniProt P69905 (P68871 whole entry, chain 2 of 2, further chain): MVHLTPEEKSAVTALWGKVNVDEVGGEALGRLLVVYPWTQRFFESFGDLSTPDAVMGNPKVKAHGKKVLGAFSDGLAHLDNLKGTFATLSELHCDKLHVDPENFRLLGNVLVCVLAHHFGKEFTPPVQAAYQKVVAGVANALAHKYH

B1: IsdB (NEAT1 and NEAT2 domains connected by the helical linker), wild type (domain or fragment)
chain: not shown
One may read the stoichiometry N as a count of units in the complex or per binding partner. Consider B1, for which the “stoichiometry N” value came out at 1 IsdB per Hb monomer.
